From patent US20220251191A1 (published 2022)

Target: T1, IL-15Rβ with 20 nM receptor γ (UniProt P14784 27-239; P31785 23-262)
T1 chain 1: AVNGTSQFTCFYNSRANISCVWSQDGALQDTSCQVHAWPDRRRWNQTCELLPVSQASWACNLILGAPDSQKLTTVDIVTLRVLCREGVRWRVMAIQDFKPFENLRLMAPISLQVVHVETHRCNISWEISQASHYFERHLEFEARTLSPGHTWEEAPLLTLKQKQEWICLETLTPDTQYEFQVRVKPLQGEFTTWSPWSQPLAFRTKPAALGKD
T1 chain 2: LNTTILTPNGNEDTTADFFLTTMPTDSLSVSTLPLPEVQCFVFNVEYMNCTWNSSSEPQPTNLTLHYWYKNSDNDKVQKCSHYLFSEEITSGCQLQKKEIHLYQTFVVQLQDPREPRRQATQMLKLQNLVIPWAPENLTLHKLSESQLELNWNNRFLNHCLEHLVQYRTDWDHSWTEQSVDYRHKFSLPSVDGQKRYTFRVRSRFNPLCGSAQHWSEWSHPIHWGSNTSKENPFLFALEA
Test: TR-FRET; with gamma

- Kd: 3.61 nM
B1: IL-15 WT (in-house His6) (ligand)
chain: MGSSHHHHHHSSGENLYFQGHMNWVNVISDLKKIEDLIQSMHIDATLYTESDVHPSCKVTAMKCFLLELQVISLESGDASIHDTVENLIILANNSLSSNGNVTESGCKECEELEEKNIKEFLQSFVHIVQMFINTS
